Measurements: PubChem BioAssay AID485344 (National Center for Advancing Translational Sciences (NCATS), 2010)
The campaign covered roughly 340,000 compounds. About 6,900 (2%) were called active. Rule as the data show it: active = inhibition above about 30%; inactive = below that, where a call was filed. The entries are a selection whose mix differs from that of the whole data set. The source gives no active or inactive call for entries shown without one.

target: D(2) dopamine receptor (Homo sapiens) (UniProt P14416); test: HTS Assay for Allosteric Antagonists of the Human D2 Dopamine Receptor: Primary Screen for Antagonists; conditions: HEK293 TREx D2 cells, calcium flux, dopamine EC80; at 10 µM; stronger effect = higher value; also: 0% is about no effect
Chain of UniProt P14416 (P14416 whole entry, looked up): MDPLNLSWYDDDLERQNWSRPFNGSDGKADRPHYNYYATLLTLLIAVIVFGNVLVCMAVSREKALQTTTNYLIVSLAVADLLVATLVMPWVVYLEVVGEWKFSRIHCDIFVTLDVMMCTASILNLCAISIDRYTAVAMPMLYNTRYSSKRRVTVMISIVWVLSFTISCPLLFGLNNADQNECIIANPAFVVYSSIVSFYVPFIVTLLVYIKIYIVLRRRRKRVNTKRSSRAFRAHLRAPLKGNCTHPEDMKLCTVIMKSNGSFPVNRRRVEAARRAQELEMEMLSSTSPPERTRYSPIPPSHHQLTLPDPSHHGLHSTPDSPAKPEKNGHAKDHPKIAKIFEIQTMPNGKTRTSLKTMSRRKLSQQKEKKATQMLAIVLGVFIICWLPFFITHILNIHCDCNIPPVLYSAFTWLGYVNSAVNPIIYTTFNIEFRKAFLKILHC
Outline: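 Compounds are added to dye-loaded, induced HEK293 T-REx cells coupled to calcium release via D2; after a 3 min kinetic read an EC80 dopamine stimulus is given and fluorescence is recorded for 3 more min.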

| SMILES | inhibition |
| --- | --- |
| Cc1ccc(C(C)C)c(OCC(=O)Nc2cccc(-c3nc4ncccc4o3)c2)c1 | 4.24% |
| CCOc1ccc(NC(=O)N(Cc2ccc(CC)cc2)Cc2cn[nH]c2-c2ccc(OC)cc2)cc1 | 9.43% |
| CCOc1ccc(-c2cc3c(=O)n(Cc4nc(-c5ccc(OC)cc5OC)oc4C)ccn3n2)cc1Cl | -16.1% |
| COc1cccc(Oc2nc3c(c(=O)n(Cc4ccccc4Cl)c(=O)n3C)n2C)c1 | 6.69% |
| CCOc1ccc(C(=O)N2CCC(c3nc(-c4ccc(S(=O)(=O)N5CCCC5)cc4)no3)CC2)cc1 | 12.8% |
| c1ccc(CSc2nnc(C3CCNCC3)o2)cc1 | -8.97% |
| COC(=O)c1ccc(NC(=O)CCn2cccn2)cc1 | -5.97% |
| COc1ccc(NC(=O)C2=C(C)Nc3c(C(=O)Nc4ccc(C)cc4)cnn3C2c2cc(OC)ccc2OC)cc1 (stereo not given) | 7.4% |
| Cc1cc(C)c2oc(-c3cc(NC(=O)Cc4ccccc4)ccc3Cl)nc2c1 | -20% |
| COc1cccc(NC(=O)Cn2c(=O)n(Cc3ccccc3)c(=O)c3c2c2cc(C)ccc2n3C)c1 | 4.49% |
| CCCN1CCc2nc(SCC(=O)Nc3ccc(C)c(Cl)c3)[nH]c(=O)c2C1 | 17.2% |
| CN(C)c1ccc(C2CC(c3c(O)n(C4CCCCC4)c(=O)[nH]c3=O)=Nc3ccccc3S2)cc1 (stereo not given) | 10.8% |
| CCN(CC)S(=O)(=O)c1ccc2c(c1)N(CC(=O)NCc1ccc(F)cc1)C(=O)CO2 | -2.91% |
| CCCOc1ccc(C2C(=O)N(C3CCCCCC3)CC(=O)N2Cc2ccc(OC)cc2)cc1OC (stereo not given) | -13.9% |
| Cc1cc(N2CCN(c3cccc(C(F)(F)F)c3)CC2)n2nc(-c3ccccc3C)nc2n1 | -4.07% |
| Cc1ccc2oc(=O)c3cnn(CC(=O)N4CCN(c5cccc(C(F)(F)F)c5)CC4)c3c2c1 | 11.4% |
| O=S(=O)(c1cccc(C(F)(F)F)c1)N1CCC(Oc2ccc(-n3cnnn3)cc2)CC1 | 12.1% |
| CCC(C)NC(=O)CSc1nc2c(sc3ccccc32)c(=O)n1CCc1ccccc1 (stereo not given) | 10.8% |
| COc1ccc(C2C=C(c3ccccc3)Nc3nc(NS(=O)(=O)c4ccc(C)cc4)nn32)cc1 (stereo not given) | 26.1% |
| Cc1c(C(=O)OC2CCCCC2)[nH]c2c1C(=O)CC(c1ccccc1)C2 (stereo not given) | 4.15% |
| Cc1ccc(OCC(=O)N(Cc2ccc(Cl)cc2)CC2CCCO2)cc1C (stereo not given) | 0.237% |
| O=C(Nc1ccccc1C(F)(F)F)Nc1c[nH]c(=O)[nH]c1=O | -6.23% |
| COc1ccc(Nc2c(-c3ccco3)nc3cccc(C)n23)cc1 | 1.49% |
| O=C(NCCC(=O)N1CCN(c2ccccn2)CC1)c1ccc(Br)cc1 | active: 57.6% |

| SMILES | inhibition |
| --- | --- |
| Cc1ccc2c(C)c(C(=O)N3CCC(c4nc5ccccc5s4)CC3)oc2c1C | -12.8% |
| COc1cc(OC)c(OC)cc1CN1CCc2nc(N3CCN(c4ccccc4F)CC3)ncc2C1 | -28.3% |
| CCc1ccc(NC(=O)C2CCCN(S(=O)(=O)c3cccc4cccnc34)C2)cc1 (stereo not given) | -10.9% |
| COc1ccc(S(=O)(=O)N2CCC(C(=O)NCCN3CCOCC3)CC2)cc1C | active: 34.2% |
| Cc1ccc(CNC(=O)c2sc3ncnc(N(C)C4CCCCC4)c3c2C)cc1 | 2.01% |
| COc1cc(NC(=O)Cn2cnc(S(=O)(=O)N3CCOCC3)c2)cc(OC)c1OC | active: 45.4% |
| Cc1ccccc1NC(=O)C1CCN(S(=O)(=O)c2ccccc2)CC1 | -2.23% |
| CCOC(=O)CNC(=O)CC(c1cc(OC)c(OC)c(OC)c1)N1Cc2ccccc2C1=O (stereo not given) | 12.1% |
| CCN(CC)c1ccc(C(=O)Nc2ccc3nc(N(CC)CC)cc(C)c3c2)cc1 | 4.52% |
| Cc1ccc2[nH]c(CSc3nnc(NC(=O)COc4ccccc4Cl)s3)cc(=O)c2c1 | -10.5% |
| CCc1nnc(NC(=O)CSc2nc3c([nH]c4ccccc43)c(=O)n2-c2ccc(C)cc2)s1 | 6.92% |
| Cc1ccc(C)c(-c2ccc(=O)n(Cc3ccc(F)cc3Cl)n2)c1 | -9.01% |
| O=C(NC1CC2CCCC(C1)N2Cc1ccc(F)cc1)c1ccc(F)cc1 (stereo not given) | active: 75.3% |
| CCOC(=O)C1CCCN(C(=O)Cn2ncc3c4ccccc4n(Cc4ccc(F)cc4)c3c2=O)C1 (stereo not given) | -15.1% |
| O=C(COc1ccccc1)Nc1sc2c(c1C(=O)Nc1ccccc1)CCCCC2 | 5.12% |
| O=C(CCCCCn1c(=O)[nH]c2ccccc2c1=O)N1CCN(c2ccc(Cl)cc2)CC1 | 21.4% |
| O=S(=O)(c1ccc(F)cc1)N1CCC(N2CCCCCC2)CC1 | active: 42% |
| O=C(CSc1ncn[nH]1)N1N=C2/C(=C/c3ccccc3)CCCC2C1c1ccccc1 (stereo not given) | active: 33.3% |
| COC(=O)c1ccc(CNC(=O)c2nc(Cn3nc(C)c(Br)c3C)no2)cc1 | -3.78% |
| COc1cc2c(cc1OC)C(COc1cc(C)cc(C)c1)N(C(=O)c1ccc(S(=O)(=O)N3CCCC3)cc1)CC2 (stereo not given) | -9.48% |
| O=C(CSc1nc2c([nH]c3ccccc32)c(=O)n1-c1cccc(Cl)c1)NCc1ccccc1 | -6.65% |
| CCC(C)Sc1nc2c([nH]c3ccccc32)c(=O)n1C (stereo not given) | -5.19% |
| COc1ccc(-c2nc(C)c(CCNC(=O)c3ccco3)s2)cc1 | 22% |
| Cc1ccccc1COC(=O)c1ccc(-c2nnn(Cc3ccccc3F)n2)cc1 | 0.602% |

| SMILES | inhibition |
| --- | --- |
| O=c1c(-c2cc(-c3ccc(F)cc3)nc3c2COc2ccc(Cl)cc2-3)coc2ccc(F)cc12 | 0.0412% |
| CC(=O)N1c2ccc(S(=O)(=O)N3CCN(c4cc(Cl)ccc4C)CC3)cc2CC1C (stereo not given) | -1.08% |
| CC(=O)Nc1ccc(NC(=O)CSc2cn(CC(=O)N(C(C)C)C(C)C)c3ccccc23)cc1 | 27.8% |
| Cc1ccc(-c2noc(CN(C3CCCCC3)S(=O)(=O)c3ccc(F)cc3)n2)cc1 | -22.1% |
| Cc1cc2oc(C(=O)NCCc3ccc(S(N)(=O)=O)cc3)cc(=O)c2cc1C | -26.1% |
| COc1cc(C(=O)NCc2nnnn2-c2ccc(C)c(C)c2)cc(OC)c1OC | 7.31% |
| CCOc1ccccc1CN1C(=O)c2ccccc2C1C(=O)NC1CCCCCC1 (stereo not given) | 28.2% |
| COc1ccc(OCCn2cc(C(=O)c3ccco3)c3ccccc32)cc1 | 21.4% |
| CCC(=O)N1CCc2cc(S(=O)(=O)NC(Cc3ccccc3)C(=O)NCc3ccc(C)cc3)ccc21 (stereo not given) | 3.57% |
| COC(=O)c1cc2occc2n1Cc1nc(-c2ccccc2C)oc1C | -1.09% |
| Cc1cc(C)n2nc(NCc3ccccc3Cl)nc2n1 | -20.3% |
| COc1ccc(CNc2nc(-c3ccco3)nn2S(=O)(=O)c2ccc3ccccc3c2)cc1OC | 12.1% |
| Cc1ccc(C)c(NC(=O)Cn2c(=O)n(Cc3nc(C)no3)c(=O)c3cc4c(cc32)OCO4)c1 | -5.38% |
| CCc1ccc(NC(=O)Cn2c(=O)n(Cc3ccc4c(c3)OCO4)c(=O)c3oc4ccccc4c32)cc1 | -2.17% |
| Cc1cccc(N2C(=O)C(CC(=O)Nc3ccc(F)cc3)N(C3CCCC3)C2=O)c1 (stereo not given) | -3.04% |
| Cc1ccc(S(=O)(=O)n2nc(-c3ccccc3)nc2NCc2ccccc2Cl)cc1 | 5.55% |
| Cc1oc2ccc(O)c(CN3CCN(C)CC3)c2c1C(=O)Nc1ccc(C(C)C)cc1 | -10.2% |
| Cc1ccc(-c2cc(C(=O)N3CCN(S(=O)(=O)c4ccc(Br)s4)CC3)[nH]n2)cc1C | -7.06% |
| Cc1oc2ccc(O)c(CN(C)Cc3ccccc3)c2c1C(=O)Nc1cccc(C(F)(F)F)c1 | -9.09% |
| COc1ccc(C(=O)c2cn(CC(=O)Nc3ccc4c(c3)OCCO4)c3ccc(OC)cc3c2=O)cc1 | 1.28% |
| COC(=O)[C@H]1[C@H]2C[C@H]3c4[nH]c5ccccc5c4CCN3C[C@H]2CC[C@@H]1O | active: 86.8% |
| COc1cc(NC(=O)Cn2c(=O)oc3cc(S(=O)(=O)N4CCCCCC4)ccc32)cc(OC)c1 | 7.24% |
| CCOc1ccc(C(=O)NCC(c2cccs2)N(C)C)cc1OCC (stereo not given) | active: 50.8% |
| COc1cccc(C2=CC(c3ccc(OC)c(OC)c3OC)n3ncnc3N2)c1 (stereo not given) | -3.55% |

| SMILES | inhibition |
| --- | --- |
| O=C(CSc1nc(-c2ccccc2)no1)N1CCN(c2ccccc2F)CC1 | 1.68% |
| O=C(Cn1c(=O)nc(-c2ccccc2)c2ccccc21)Nc1ccc(Cl)c(C(F)(F)F)c1 | 7.63% |
| CCc1ccc(CNC(=O)CCSCc2ccccc2F)cc1 | 3.46% |
| Cc1cccnc1NC(=O)CCc1c[nH]c2ccccc12 | active: 31.2% |
| Cc1cccc(NS(=O)(=O)c2ccc3[nH]c(=O)ccc3c2)c1C | -28% |
| CCOc1ccc(-n2c(SCC(=O)N3CCCC3)nc3c([nH]c4ccccc43)c2=O)cc1 | 1.83% |
| COC(=O)C(Cc1c[nH]c2ccccc12)NC(=O)COc1ccc(Cl)cc1Cl (stereo not given) | 24.9% |
| CCN(c1cc(C)cc(C)c1)S(=O)(=O)c1nnc(NC(=O)c2cccs2)s1 | -26.7% |
| Cc1ccc(-c2ccc(=O)n(Cc3cc(C)ccc3C)n2)cc1 | -18.9% |
| Cc1ccc(-c2nc3cccnc3s2)cc1NC(=O)C(C)C | 10.5% |
| CC1=Nc2cc(C(=O)NCCc3ccc(Cl)cc3)ccc2Sc2ccc(C)cc21 | -19.5% |
| CCC(CC)C(=O)NC1CC(=O)N(c2ccc3c(c2)OCCO3)C1 (stereo not given) | -5.9% |
| COc1ccc(CNc2ncnc3onc(C)c23)cc1 | 6.1% |
| CCCNC(=O)c1ccc2c(c1)ncn2-c1ccc(C)cc1C | 16.1% |
| COc1ccc(NC(=O)Cn2c(=O)oc3cc(S(=O)(=O)NC4CCCC4)ccc32)cc1OC | 12.5% |
| CCOC(=O)c1c(NC(=O)CS(=O)(=O)c2ccc(C)cc2)sc2c1CCCCC2 | -9.35% |
| CC(CN(C)C)CN1c2ccccc2CCc2ccccc21 (stereo not given) | active: 73.5% |
| CCc1ccc(CNC(=O)c2ccc3c(c2)N=C(C)c2cc(C)ccc2S3)cc1 | 7.53% |
| COC(=O)c1sccc1NC(=S)N1CCC(C(N)=O)CC1 | active: 36.5% |
| CN(C)CCNC(=O)c1ccc(-n2c(-c3ccccc3)cc3c2CCCC3)cc1 | 14.7% |
| CCCS(=O)(=O)Nc1cc(-c2cn3cccc(C)c3n2)ccc1C | -24.6% |
| CC(C)Oc1ccc(CNC(=O)CCCn2c(=O)c3cccn3c3ccccc32)cc1 | -8.01% |
| COc1ccc(-c2cc(C(F)(F)F)c(C#N)c(SCC(=O)Nc3ccc(F)cc3)n2)cc1 | 4.28% |
